Among the data in publication PMC8605320 are binding values, retold here.

No constants are given. Whether binding was seen depends on the method and setting. Some entries that bind do so weakly or less than the wild type. For some of these results: Sequences can lack the tags named with a protein.

The target of experiment [1] is T1, SPTLC2, endogenous in mouse liver (mouse (endogenous in liver)) (UniProt P97363).
T1 sequence: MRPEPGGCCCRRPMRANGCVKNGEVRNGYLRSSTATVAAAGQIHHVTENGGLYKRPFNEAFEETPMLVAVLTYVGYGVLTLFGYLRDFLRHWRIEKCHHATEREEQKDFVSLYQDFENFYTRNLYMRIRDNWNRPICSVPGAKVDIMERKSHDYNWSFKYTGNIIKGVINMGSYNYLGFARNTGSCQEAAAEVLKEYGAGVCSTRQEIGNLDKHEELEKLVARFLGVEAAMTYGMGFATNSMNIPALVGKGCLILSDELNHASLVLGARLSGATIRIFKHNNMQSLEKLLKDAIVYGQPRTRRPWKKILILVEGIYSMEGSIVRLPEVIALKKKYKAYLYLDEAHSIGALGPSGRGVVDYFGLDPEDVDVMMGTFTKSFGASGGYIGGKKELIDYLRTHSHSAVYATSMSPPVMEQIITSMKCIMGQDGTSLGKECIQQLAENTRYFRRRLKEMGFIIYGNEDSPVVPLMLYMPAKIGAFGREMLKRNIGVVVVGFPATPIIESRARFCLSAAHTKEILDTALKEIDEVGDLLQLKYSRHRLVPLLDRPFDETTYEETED
The experiment can be described thus: native gel or EMSA; blue native PAGE of gradient-purified mitochondria from mouse liver (MAMs stripped off); immunoblotted with anti-SPTLC1 and anti-SPTLC2. (Mobility shift assays separate free from complexed probe on a gel.)

Experiment [2] deals with T2, OM-SPTLC2^FLAG, constitutively expressed in A431 SPTLC2-KO cells (UniProt O15270).
T2 sequence: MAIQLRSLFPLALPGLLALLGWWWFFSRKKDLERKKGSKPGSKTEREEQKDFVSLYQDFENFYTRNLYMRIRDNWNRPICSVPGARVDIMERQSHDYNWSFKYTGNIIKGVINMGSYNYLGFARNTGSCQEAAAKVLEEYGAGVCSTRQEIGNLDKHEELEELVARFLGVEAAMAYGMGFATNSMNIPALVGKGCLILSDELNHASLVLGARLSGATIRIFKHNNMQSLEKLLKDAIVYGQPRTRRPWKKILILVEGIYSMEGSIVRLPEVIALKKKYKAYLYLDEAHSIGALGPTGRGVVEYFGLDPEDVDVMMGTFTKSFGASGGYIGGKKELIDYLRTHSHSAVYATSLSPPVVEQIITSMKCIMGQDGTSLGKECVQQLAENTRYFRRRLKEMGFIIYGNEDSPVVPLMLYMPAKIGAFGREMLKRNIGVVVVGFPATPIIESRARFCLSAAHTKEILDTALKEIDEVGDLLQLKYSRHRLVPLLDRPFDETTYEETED
Kind of experiment: native gel or EMSA; blue native PAGE of heavy membrane fractions from A431 SPTLC2-KO cells expressing WT-, ER- or OM-SPTLC2^FLAG; immunoblotted with anti-SPTLC2 and anti-SPTLC1.

For experiment [3], the target named is T3, WT-SPTLC2^FLAG, constitutively expressed in A431 SPTLC2-KO cells (human) (UniProt O15270).
T3 sequence: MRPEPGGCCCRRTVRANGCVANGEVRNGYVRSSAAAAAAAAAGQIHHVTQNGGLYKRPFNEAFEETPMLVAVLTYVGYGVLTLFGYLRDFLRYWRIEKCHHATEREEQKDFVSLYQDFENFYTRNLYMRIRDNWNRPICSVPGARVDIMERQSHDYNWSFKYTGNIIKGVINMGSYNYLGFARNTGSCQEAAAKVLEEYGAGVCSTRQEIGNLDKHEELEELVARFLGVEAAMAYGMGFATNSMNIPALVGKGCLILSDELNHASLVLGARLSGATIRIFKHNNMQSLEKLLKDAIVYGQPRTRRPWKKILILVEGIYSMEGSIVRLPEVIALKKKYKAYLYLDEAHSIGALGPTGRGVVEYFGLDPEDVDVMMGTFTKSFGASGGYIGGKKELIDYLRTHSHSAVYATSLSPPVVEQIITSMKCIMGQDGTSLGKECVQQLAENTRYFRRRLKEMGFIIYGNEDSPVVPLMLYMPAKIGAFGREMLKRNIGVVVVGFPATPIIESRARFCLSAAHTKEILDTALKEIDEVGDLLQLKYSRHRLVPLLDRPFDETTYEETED
The description is as above.

The target of experiment [4] is T4, ER-SPTLC2^FLAG, constitutively expressed in A431 SPTLC2-KO cells (human) (UniProt O15269+O15270).
T4 sequence: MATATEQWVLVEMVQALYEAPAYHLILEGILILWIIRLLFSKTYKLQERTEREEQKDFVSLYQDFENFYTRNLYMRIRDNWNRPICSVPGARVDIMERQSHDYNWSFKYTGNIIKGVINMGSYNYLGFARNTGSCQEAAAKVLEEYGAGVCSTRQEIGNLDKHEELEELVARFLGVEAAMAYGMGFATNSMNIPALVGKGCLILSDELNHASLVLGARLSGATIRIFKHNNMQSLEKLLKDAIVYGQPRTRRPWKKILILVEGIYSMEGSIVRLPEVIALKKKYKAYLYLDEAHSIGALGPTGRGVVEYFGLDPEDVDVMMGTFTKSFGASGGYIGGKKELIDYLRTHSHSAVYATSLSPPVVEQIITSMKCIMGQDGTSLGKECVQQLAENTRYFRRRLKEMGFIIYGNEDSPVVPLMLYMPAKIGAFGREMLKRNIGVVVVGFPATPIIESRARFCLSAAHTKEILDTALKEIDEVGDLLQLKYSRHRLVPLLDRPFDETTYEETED
The description is as above.

B1: SPTLC2, endogenous in mouse liver (enzyme, UniProt P97363 1-560)
chain: MRPEPGGCCCRRPMRANGCVKNGEVRNGYLRSSTATVAAAGQIHHVTENGGLYKRPFNEAFEETPMLVAVLTYVGYGVLTLFGYLRDFLRHWRIEKCHHATEREEQKDFVSLYQDFENFYTRNLYMRIRDNWNRPICSVPGAKVDIMERKSHDYNWSFKYTGNIIKGVINMGSYNYLGFARNTGSCQEAAAEVLKEYGAGVCSTRQEIGNLDKHEELEKLVARFLGVEAAMTYGMGFATNSMNIPALVGKGCLILSDELNHASLVLGARLSGATIRIFKHNNMQSLEKLLKDAIVYGQPRTRRPWKKILILVEGIYSMEGSIVRLPEVIALKKKYKAYLYLDEAHSIGALGPSGRGVVDYFGLDPEDVDVMMGTFTKSFGASGGYIGGKKELIDYLRTHSHSAVYATSMSPPVMEQIITSMKCIMGQDGTSLGKECIQQLAENTRYFRRRLKEMGFIIYGNEDSPVVPLMLYMPAKIGAFGREMLKRNIGVVVVGFPATPIIESRARFCLSAAHTKEILDTALKEIDEVGDLLQLKYSRHRLVPLLDRPFDETTYEETED
With B1, the binding entry in experiment [1] was “no binding”.

B2: SPTLC1, endogenous in A431 cells (enzyme, UniProt O15269 1-473)
chain: MATATEQWVLVEMVQALYEAPAYHLILEGILILWIIRLLFSKTYKLQERSDLTVKEKEELIEEWQPEPLVPPVPKDHPALNYNIVSGPPSHKTVVNGKECINFASFNFLGLLDNPRVKAAALASLKKYGVGTCGPRGFYGTFDVHLDLEDRLAKFMKTEEAIIYSYGFATIASAIPAYSKRGDIVFVDRAACFAIQKGLQASRSDIKLFKHNDMADLERLLKEQEIEDQKNPRKARVTRRFIVVEGLYMNTGTICPLPELVKLKYKYKARIFLEESLSFGVLGEHGRGVTEHYGINIDDIDLISANMENALASIGGFCCGRSFVIDHQRLSGQGYCFSASLPPLLAAAAIEALNIMEENPGIFAVLKEKCGQIHKALQGISGLKVVGESLSPAFHLQLEESTGSREQDVRLLQEIVDQCMNRSIALTQARYLEKEEKCLPPPSIRVVVTVEQTEEELERAASTIKEVAQAVLL
For the molecule B2, the binding result in experiment [2], in experiment [3] and in experiment [4] was “binds” throughout.
